Source: the supplement of paper PMC4604168 (melanoma cell lines)
The other results are listed elsewhere or left out. Most values come without repeats; read them as rough.

Tests used:
Test in all cases: cell count relative to DMSO control; melanoma cells; higher = more viable cells
Conditions in all cases: library dose: standard library concentration; 72 h
[1] = system: SkMel28
[2] = system: SkMel2
[3] = system: SkMel30
[4] = system: SkMel5
[5] = system: UACC257
[6] = system: UACC62
[7] = system: WM115
[8] = system: WM1716
[9] = system: WM1745
[10] = system: WM3526
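Note: cells treated in 1,536-well plates, then fixed and DAPI-stained, with nuclei counted from automated high-throughput microscope images.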

Row | Compound | cell count [1] | cell count [2] | cell count [3] | cell count [4] | cell count [5] | cell count [6] | cell count [7] | cell count [8] | cell count [9] | cell count [10]
1 | CS(=O)(=O)CCNCc1ccc(-c2ccc3ncnc(Nc4ccc(OCc5cccc(F)c5)c(Cl)c4)c3c2)o1 [lapatinib] + OCc1c[nH]c2ccccc12 [Indole-3-carbinol] (first compound 4 µM, partner dose 4 µM) | 86.6% | 88.3% | 84.3% | 57.4% | 93.6% | 36% | 72.3% | 77.3% | 103% | 81%
2 | CS(=O)(=O)CCNCc1ccc(-c2ccc3ncnc(Nc4ccc(OCc5cccc(F)c5)c(Cl)c4)c3c2)o1 [lapatinib] + Nc1nc(F)nc2c1ncn2[C@@H]1O[C@H](CO)[C@@H](O)[C@@H]1O [fludarabine] (first compound 4 µM, partner dose 1 µM) | 2.63% | 1.2% | 23.4% | 17.8% | 35.6% | 62.6% | 85.6% | 115% | 69% | 31.4%
3 | CS(=O)(=O)CCNCc1ccc(-c2ccc3ncnc(Nc4ccc(OCc5cccc(F)c5)c(Cl)c4)c3c2)o1 [lapatinib] + NC(=O)Nc1cc(-c2cccc(F)c2)sc1C(=O)N[C@H]1CCCNC1 [AZD7762] (first compound 4 µM, partner dose 0.1 µM) | 49.7% | 88.1% | 72.9% | 64.4% | 103% | 68.3% | 72.5% | 74.7% | 62.9% | 57.3%
4 | C[C@@H](Oc1cc(-c2cnn(C3CCNCC3)c2)cnc1N)c1c(Cl)ccc(F)c1Cl [Crizotinib] + Cc1ccc(NC(=O)c2cccc(N(C)C)c2)cc1NC(=O)c1ccc(O)cc1 [ZM336372] (first compound 1 µM, partner dose 10 µM) | 84.4% | 71.4% | 81% | 52.1% | 81.8% | 81.2% | 47.1% | 85.1% | 43.8% | 84%
5 | CNC(=O)c1cc(Oc2ccc(NC(=O)Nc3ccc(Cl)c(C(F)(F)F)c3)cc2)ccn1 [sorafenib] + Clc1ccc(Nc2nnc(Cc3ccncc3)c3ccccc23)cc1 [vatalanib] (first compound 2 µM, partner dose 10 µM) | 88.3% | 67.7% | 95.3% | 62.5% | 71.7% | 75.2% | 98.7% | 107% | 58.5% | 70.1%
6 | CNC(=O)c1cc(Oc2ccc(NC(=O)Nc3ccc(Cl)c(C(F)(F)F)c3)cc2)ccn1 [sorafenib] + COCC[n+]1c2c(n(Cc3cnccn3)c1C)C(=O)c1ccccc1C2=O [YM155] (first compound 2 µM, partner dose 0.002 µM) | 51.4% | 42.3% | 87.7% | 51.3% | 38.2% | 81% | 85.1% | 63.4% | 76.1% | 58.9%
7 | CS(=O)(=O)CCNCc1ccc(-c2ccc3ncnc(Nc4ccc(OCc5cccc(F)c5)c(Cl)c4)c3c2)o1 [lapatinib] + CN(NC(=O)CC(=O)NN(C)C(=S)c1ccccc1)C(=S)c1ccccc1 [STA4783] (first compound 4 µM, partner dose 0.03 µM) | 22.1% | 49% | 72.5% | 21.1% | 105% | 50.7% | 18.5% | 85.2% | 36.3% | 100%
8 | C=CCNC1=C2C[C@@H](C)C[C@H](OC)[C@H](O)[C@@H](C)/C=C(\C)[C@H](OC(N)=O)[C@@H](OC)/C=C\C=C(/C)C(=O)NC(=CC1=O)C2=O [Tanespimycin] + NCC(=O)Nc1ccc(-n2nc(C(F)(F)F)cc2-c2ccc3c(ccc4ccccc43)c2)cc1 [OSU03012] (first compound 0.01 µM, partner dose 5 µM) | 19% | 32.2% | 49.2% | 39.5% | 73.3% | 65.7% | 26.5% | 73.8% | 72.1% | 49%
9 | CN1CCN(c2ccc3nc(-c4c(N)c5c(F)cccc5[nH]c4=O)[nH]c3c2)CC1 [Dovitinib] + C=CCNC1=C2C[C@@H](C)C[C@H](OC)[C@H](O)[C@@H](C)/C=C(\C)[C@H](OC(N)=O)[C@@H](OC)/C=C\C=C(/C)C(=O)NC(=CC1=O)C2=O [Tanespimycin] (first compound 0.5 µM, partner dose 0.01 µM) | 48.4% | 76.7% | 96.8% | 55.2% | 82.2% | 49.4% | 32% | 79.2% | 42.8% | 55.6%
10 | C[C@@H](Oc1cc(-c2cnn(C3CCNCC3)c2)cnc1N)c1c(Cl)ccc(F)c1Cl [Crizotinib] + Nc1ccn([C@@H]2O[C@H](CO)[C@@H](O)C2(F)F)c(=O)n1 [gemcitabine] (first compound 1 µM, partner dose 0.002 µM) | 62.7% | 86.2% | 87.3% | 91.7% | 106% | 62.8% | 55.4% | 72.2% | 49.4% | 106%
11 | C[C@@H](Oc1cc(-c2cnn(C3CCNCC3)c2)cnc1N)c1c(Cl)ccc(F)c1Cl [Crizotinib] + O=C(O)c1ccc2c(c1)nc(Nc1cccc(Cl)c1)c1ccncc12 [CX4945] (first compound 1 µM, partner dose 2 µM) | 95.7% | 74% | 77.6% | 56.8% | 81.7% | 62.8% | 51.6% | 87.8% | 56.7% | 63.5%
12 | C[C@@H](Oc1cc(-c2cnn(C3CCNCC3)c2)cnc1N)c1c(Cl)ccc(F)c1Cl [Crizotinib] + CNC(=O)c1cc(Oc2ccc(NC(=O)Nc3ccc(Cl)c(C(F)(F)F)c3)cc2)ccn1 [sorafenib] (first compound 1 µM, partner dose 2 µM) | 62% | 73.8% | 94.3% | 74.3% | 76.4% | 59.2% | 87.5% | 79.5% | 70% | 74.9%
13 | CNC(=O)c1cc(Oc2ccc(NC(=O)Nc3ccc(Cl)c(C(F)(F)F)c3)cc2)ccn1 [sorafenib] + OCc1c[nH]c2ccccc12 [Indole-3-carbinol] (first compound 2 µM, partner dose 4 µM) | 77.3% | 101% | 103% | 79.7% | 93.1% | 99.4% | 98.8% | 100% | 81.5% | 88.8%
14 | CNC(=O)c1cc(Oc2ccc(NC(=O)Nc3ccc(Cl)c(C(F)(F)F)c3)cc2)ccn1 [sorafenib] + O=C(CCCCCCC(=O)Nc1ccccc1)NO [vorinostat] (first compound 2 µM, partner dose 0.4 µM) | 73.3% | 77.8% | 84.7% | 64% | 78.3% | 76.4% | 139% | 123% | 87% | 78.7%
15 | CS(=O)(=O)CCNCc1ccc(-c2ccc3ncnc(Nc4ccc(OCc5cccc(F)c5)c(Cl)c4)c3c2)o1 [lapatinib] + C[C@@H]1CCN(C(=O)CC#N)C[C@@H]1N(C)c1ncnc2[nH]ccc12 [CP690550] (first compound 4 µM, partner dose 5 µM) | 106% | 83.8% | 95.7% | 64.7% | 82% | 81.7% | 104% | 102% | 97.6% | 66.9%
16 | C=CCNC1=C2C[C@@H](C)C[C@H](OC)[C@H](O)[C@@H](C)/C=C(\C)[C@H](OC(N)=O)[C@@H](OC)/C=C\C=C(/C)C(=O)NC(=CC1=O)C2=O [Tanespimycin] + CC(C)(C)c1cnc(CSc2cnc(NC(=O)C3CCNCC3)s2)o1 [SNS-032] (first compound 0.01 µM, partner dose 0.05 µM) | 77.4% | 72% | 91.4% | 62.7% | 105% | 52.1% | 22.2% | 73.4% | 66.2% | 77.9%
17 | C[C@@H](Oc1cc(-c2cnn(C3CCNCC3)c2)cnc1N)c1c(Cl)ccc(F)c1Cl [Crizotinib] + CC(=O)c1c(C)c2cnc(Nc3ccc(N4CCNCC4)cn3)nc2n(C2CCCC2)c1=O [palbociclib] (first compound 1 µM, partner dose 0.2 µM) | 27.6% | 53.5% | 44.6% | 47.4% | 66.3% | 47.9% | 34.7% | 28.5% | 57.6% | 35.8%
18 | CNC(=O)c1cc(Oc2ccc(NC(=O)Nc3ccc(Cl)c(C(F)(F)F)c3)cc2)ccn1 [sorafenib] + O=C(O)c1ccc(-c2c[nH]c3ncc(-c4ccccc4)cc23)cc1C1CCCC1 [GSK650394] (first compound 2 µM, partner dose 0.8 µM) | 62% | 83.6% | 117% | 84.2% | 85.3% | 107% | 82% | 94.3% | 79% | 81.5%
19 | CS(=O)(=O)CCNCc1ccc(-c2ccc3ncnc(Nc4ccc(OCc5cccc(F)c5)c(Cl)c4)c3c2)o1 [lapatinib] + CC1(C)NC(=O)N(c2ccc([N+](=O)[O-])c(C(F)(F)F)c2)C1=O [nilutamide] (first compound 4 µM, partner dose 5 µM) | 79.9% | 82.7% | 111% | 69.3% | 84.3% | 63.4% | 69.5% | 86.9% | 74.7% | 84.3%
20 | C[C@@H](Oc1cc(-c2cnn(C3CCNCC3)c2)cnc1N)c1c(Cl)ccc(F)c1Cl [Crizotinib] + OCc1c[nH]c2ccccc12 [Indole-3-carbinol] (first compound 1 µM, partner dose 4 µM) | 52.1% | 73.9% | 82.3% | 66.1% | 89.3% | 76% | 53.9% | 83.2% | 72% | 70.9%
21 | CS(=O)(=O)CCNCc1ccc(-c2ccc3ncnc(Nc4ccc(OCc5cccc(F)c5)c(Cl)c4)c3c2)o1 [lapatinib] + C=CCNC1=C2C[C@@H](C)C[C@H](OC)[C@H](O)[C@@H](C)/C=C(\C)[C@H](OC(N)=O)[C@@H](OC)/C=C\C=C(/C)C(=O)NC(=CC1=O)C2=O [Tanespimycin] (first compound 4 µM, partner dose 0.01 µM) | 46.4% | 97.2% | 95.9% | 57% | 84.4% | 44.2% | 41.9% | 77.2% | 57.3% | 81.5%
